This is one part of the list. At the low end of the ranking the order means little. Measured with an extract: partners may take part in the binding.

The test addresses T1, HNF4alpha8 (COS-7 nuclear extract) (UniProt P41235-5).
T1 sequence: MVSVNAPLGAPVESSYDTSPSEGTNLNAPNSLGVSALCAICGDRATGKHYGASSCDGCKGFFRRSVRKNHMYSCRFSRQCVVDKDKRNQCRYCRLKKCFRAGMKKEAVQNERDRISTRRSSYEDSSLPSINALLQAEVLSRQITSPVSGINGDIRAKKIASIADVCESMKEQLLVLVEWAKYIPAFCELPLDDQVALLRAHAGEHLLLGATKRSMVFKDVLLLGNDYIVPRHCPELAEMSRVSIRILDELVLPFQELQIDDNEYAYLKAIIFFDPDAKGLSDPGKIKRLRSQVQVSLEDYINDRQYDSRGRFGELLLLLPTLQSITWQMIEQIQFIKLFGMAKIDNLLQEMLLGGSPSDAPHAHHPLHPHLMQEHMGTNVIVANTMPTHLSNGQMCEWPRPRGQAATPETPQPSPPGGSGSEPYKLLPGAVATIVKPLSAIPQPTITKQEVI
The test is described as follows: protein-binding microarray. As to conditions: COS-7 nuclear extract on double-stranded Agilent 4x180k PBM; binding buffer, salt, pH and temperature not given; high values mean tight binding; double strand, one strand shown; sequences stand for … in …GCCTAGGGAGATTAGAGTATCGGTCGA
As to AGTTGGAAAATGTCGTTTTCCCGGTTTGTT, the binding signal (log2 normalized intensity) is 1.04.
Under TCTGCAGCCCCTTTTGGAATCCCCATCTCA stands 3.62; under AAAGTCTACATTCTAGATGACCCCTCTCTA, 4.5; under AGTGAGCCTTGCCGTGCTGCGGTGGGCTCC, -1.47.
Under GGGTGGTGGTTACCGGCAGAGGCTGCAGAG stands -0.956; under AGTGCACCTTAATAAGCACATTCCTTTCCC, -0.98; under CCCAGTATGAGCGGCGCTGACCCCGGGAGC, 3.67.
Take GCCTCATGGACTTTGAAGGAGATTCCTGTG: the binding signal (log2 normalized intensity) came out at 2.03.
On to AGATGAGTTTCTTCACTGACGAAACTCACA, for which the binding signal (log2 normalized intensity) was -0.96.
For GTCAATAGGGCAGGGGGGAGATGAAATCTG, the binding signal (log2 normalized intensity) is -1.36.
Under TATCTCCAGCAAACGTTCTTCTCTAACCCT stands -0.322; under TGGATGGGGGCGTTCCCCGAGCGAGCTCCG, -1.34; under AAGGTCAGGACCACACATTCCATTACTGCA, -1.28.
For the sequence TGCACTTTACGTAAGATAAGGTGAACATAC, the binding signal (log2 normalized intensity) turned out to be 1.09.
Turning to CCTAAAACATCAAATACCTCCAAGAGGTTT, the binding signal (log2 normalized intensity) is -1.08.
AAAGGAGACTTTTAAGTGGGGTCAAAGGGT: the binding signal (log2 normalized intensity) was determined as 5.97.
For the sequence AACTCACAGTCTGGCAGTGAAGGTTCAGTG, the binding signal (log2 normalized intensity) is 1.67.
The value for GCCGGCCCGCAGGTCAGTCGACCCTCTCTG was 2.12; that for TAGGTCCCTGCTTCCAAGTCTCAGCACCTG was -1.37.
Turning to TGGACTCCTCTTATCTTCAGGTATCCTTAA, the binding signal (log2 normalized intensity) stood at 0.683.
As for GCAGTCAGGACTCTGGGACCGCAGGGGGCT, the binding signal (log2 normalized intensity) was -1.4.
Regarding GAGACACCTGGCCAAGTACAGCCTGTGCTA, the binding signal (log2 normalized intensity) was -1.32.
The value for ACAAAGGGGGAGGGAGATAGAGAAAGAAAA was -1.38; that for ATGACCTGGACAGGTCCAAGGTTCTCCAGG was 2.68.
As for AACAGAGTCTCCGAGGAACCCAGACTGCAT, the binding signal (log2 normalized intensity) was -1.27.
Turning to ACCTTTGGGCTAAAAAGGAAGCTGTGTGTG, the binding signal (log2 normalized intensity) was 1.52.
Consider TTTTCCTCTAACCACTTTGAAATAGTGACC, for which the binding signal (log2 normalized intensity) came to 2.64.
Take GAAGCTTGAAGGAGTATATGGCTAAGCGAA: the binding signal (log2 normalized intensity) was -1.22.
Regarding AGGTTGCAGTGAGCTGTGATTGCGCCACTG, the binding signal (log2 normalized intensity) was -0.901.
GGAACCCCACCCCCACGCCCCCCAGCGGAA: the binding signal (log2 normalized intensity) turned out to be 7.38.
With GTCAAACTGATCAGAAGTGGTTACATCTAT, the binding signal (log2 normalized intensity) was determined as 0.492.
As for ATACCCAGAGTGATCTTTGAAACATAACAG, the binding signal (log2 normalized intensity) amounted to 2.16.
Under TCAAACAGCTTCGCCTCCTCCAAGCATACC stands -1.29; under CGAGTCAAGGGTCAATCCTCTCTTTGGAAT, 2.97.
The value for AGAACAAGGTAGCCACAGAATGACTCTTGT was -0.89; that for GTGGATGCTGGAATGAGGGAGGCAGCCACC was -1.31; that for TTTGTGTTTGTCCCTTTCTTCTTCTGCCAC was 1.68.
As to TGGAGGCTGGAGCTCCTGGGCCAAAGGGCA, the binding signal (log2 normalized intensity) was 4.63.
Take GAAAGTCTGACCCTTGACCAAGCAGCTGTT: the binding signal (log2 normalized intensity) came to 4.43.
As for CTTCTGCCCCCGCAGACCCAGTCTTAGGGA, the binding signal (log2 normalized intensity) was 4.12.
With CCCATCTTCCAGAAATGCCAAGATCAGGGC, the binding signal (log2 normalized intensity) was -1.25.
In the case of AGGTGGGGGCCGCCCATTGGGATCCATATC, the binding signal (log2 normalized intensity) was -1.25.
The value for TCTAGGTCACCACCTTTTTTGGCCTTTACC was 1.95.
The value for TATCAAGGGTGAGGGATTTTCAGTATACTG was -1.14.
The value for CTTCCCCACCCCCTCTCCTCCCTCGGCCGG was 5.78.
For ATGCTGCTCTCCCACTCCCCCTGCTGGACA, the binding signal (log2 normalized intensity) amounted to 3.93.
The value for CTGGAACCAACATGGCAGACAGCAGTCTGA was -1.28.
For GAAGTAAAACAGGTAGAGAGCTGTCTGCTG, the binding signal (log2 normalized intensity) was -1.3.
In the case of CTTAAAAAAAAAGAACAGCTTTGGTATTAC, the binding signal (log2 normalized intensity) came out at 0.456.
As for ATGGCCACCCTTCAGCAAATAGTGGGAGGT, the binding signal (log2 normalized intensity) was -0.839.
The value for TTTTATTATATTGAATTCCTGGAAATCCCG was -0.0113.
For the sequence ATCTCTTGACTCTTCCCATCTAACTGCCCC, the binding signal (log2 normalized intensity) came out at 4.39.
Turning to GCTCTCAGAATAGCAAATCTGTTACGAGTG, the binding signal (log2 normalized intensity) was -0.823.
Consider CGGCAGAGCACCTGGATAAGCCAGATAATT, for which the binding signal (log2 normalized intensity) was -1.18.
Consider AATGACATTTTGGACTACTTCATGTCCTGT, for which the binding signal (log2 normalized intensity) stood at 1.22.
For AGTATAATAAAGTGGCAACCCTTGACCCCA, the binding signal (log2 normalized intensity) amounted to 6.42.
For the sequence GCAAGACCAAACAAAATTAATGTGCCTGCC, the binding signal (log2 normalized intensity) is -1.34.
As to ACAAGGCAGACTTGGATTTTCTCATCCCAG, the binding signal (log2 normalized intensity) was -0.845.
The value for TTGTAGGGGGAGGGTAAATATAGTTAAAGC was -1.29; that for CCTGGCTTGTTTGCAAAGCAACTCCTCTGT was -0.585.
Take GTGAGCAGGTGTGTGGCATCTTGGGGTCAA: the binding signal (log2 normalized intensity) turned out to be 4.53.
With TGAGGCCTGGCCGAGGTTGCCCAGCTATTA, the binding signal (log2 normalized intensity) was -1.14.
With ACCGTAGCCTGACCATCACCACTTCAAGCT, the binding signal (log2 normalized intensity) was -1.28.
With TTTTAGATTAGGAGAGGGAGAGTGAGTGAG, the binding signal (log2 normalized intensity) was -1.39.
With GGCAGTGTGGCACCCTCCCTTCCCGGGGAG, the binding signal (log2 normalized intensity) was -1.22.
For the sequence GAGAGGAGAAAGAGCAATCTCTCATCTGCC, the binding signal (log2 normalized intensity) is -1.26.
Take TTATCATAAGTCAGCCTGGCTGAAGACCTG: the binding signal (log2 normalized intensity) was -0.92.
Under ACAGAGAGAAAGCAGTGACCATCCCAAAGC stands -1.34; under AAGTAAGCAGACACTGAAAGATGGTATGCT, -1.29; under GCTGCCAATGCAAATCCCAGAGTTCAAAGG, 5.13.
Under TGCTTAACTATGTTTATCAGAGCAAAGTTC stands 4.15.
Under GACCCTGAAAACAGGGCAAGGAACGGAATG stands 0.939.

For the origin of these results see paper PMC10726135.
